# Read counts are not given, so values of variants with three or more changes are uncertain.
# B1: LINE1-mini (parent)
# chain: GGCAGAGCUCAACACAGCGUGGCAAAGUGGCUGUGGCUAGACUGCC
# Variants of: B1
# Assay: self-cleavage, relative activity (ratio to wild type); higher = more cleavage; in vitro, sequencing; the parent is a self-cleaving ribozyme
row,Variant,self-cleavage
1,AGCAGAGCUCAACACAGCGUGGUAAAGUGGCUGUGGCAAGACUGCC,2.37
2,GGCAGAGCUGAACCCAGCGUGGCAAAGGGGCUGUGUCUAGAGUGCC,0.03
3,GGCAGAGCUCUACACAGCGGGGCAAAGUGGCUUUGGCUAGUCUGCC,0.03
4,CCUAGAGCUCACCACAGCGUGGCAAAGUGGCUGUGGCUAGACUGUC,0.13
5,GGAAGAGCUCAACACUGCGAGGCACAGUGGCUGUUGCUAGACUGCC,0.06
6,GGCAGAGCUCAACACCGCGUGGAAAAGUGGCUGUGGCUAGACUGAC,0.13
7,GGCAGAGCUCAACACAGCGUGGAAUAGUGGCUGUGGCAAGACUGCC,0.06
8,GGCAGAGCUCAAUACAGCGUGUCAAAGUUGCUGUGGCUCGACUGAC,0.06
9,GGCAGAGCUCAACACAUCGUGGGAAAGUCGUUGUGGCUCGACUGCC,0.01
10,GGGAGAGCUCAACACCGCUUGGCAAUGUGGCUGUGGCUAGACUGCC,0.03
11,GGCAGAGCUUAUCACAGCGUGGUAAAAUGGCUGUGGCUAGAGUGCC,0.11
12,GGCGGAGCUCAACACAGCGUGCCAAAGCGGCUUCGGCUAGACUGCC,0.09
13,GGCAGAGCUCAAGACAGCGUGGCAAAGUGGCUGUGGCUCGCCUGCC,0.02
14,GGCAGACCUCAACACAGCGUAGCAAUGUGGCUGUGGCGAGACUGCC,0.03
15,GGCAGAGCUCGACGCAGCGUGGCCAAGUGGCUGUGGCUAGACUACC,0.05
16,GGCAGAGCUCAGCACAGCGUGGCAAAGAGGCCGUGGCUAGACUGCC,0.08
17,GGCAUAGCUCAACACGGCGUUGUAUAGUGGCUGCGGCUAGACUGGC,0.03
18,GGCGGAGCUCAACACAGCGUGGCAAAGUGGCAUUGGCUAGACUGCC,0.18
19,GGCAGAGCUCAACACAGCGUCUCAAAGGGGCUGUGGCUAGACUGCC,1.06

row,Variant,self-cleavage
1,GGCGGGGCUCAACACAGCGUGGCAAAGUGGCUGUGGCUACACUGCU,0.03
2,GGCAGAGCUCAACACAGCGUGCCACAGUGGCUGUGGGGAGACUGCC,0.07
3,GGCAGAGCUCAAGAUAGCGUGGCAAAGUGGCUGUGGCUAGACUUCC,0.11
4,GGCAGAGCUCAACACAGCCUGGCAAAGUGCGUGUGGCGAGACUGCC,0.03
5,GGCAGAGCUAAACACAGCGUGGCUAAGUGGCUGUGGCUGGACGGCC,0.04
6,GGCAGAGGUCAACACUGCGUGGCGUAGUGGCUGUAGAUAGAUUGCC,0.1
7,GUCAGAGCUCAACACAGAGUGGCAAAGUGGCUGUGGCUAUACUGAC,0.03
8,GACAGAGCUCACCACAGCGUGGCAAAGUGGCUUUGGCUAGACUGCC,0.02
9,GGCAGAACUCAGCACAGCGUGGCCUAGUGCCUGUGGCUAGCCAGCC,0.25
10,GGCAGAGCUCAACACACCGUGACAAAGUGGCUGUGGUUAGACUGCC,0.07
11,GGCAGAGCUCAACACAGCGUGGGAAAGUGGCUCUGGCCAGACUGCC,0.03
12,GGCAGAGCUCACCACAGCGUGGCAAAUUGGCGGUCGCUAGACUGCC,0.03
13,GGCAGAGAUCAACACAGCGUUGCGAAGUGGCUGUGUCUAGCCUGUC,0.03
14,GGCAGAGCUCAACACUGCGUGGCAAAUUGGCUAUGGCUAGACUACC,0.03
15,GGCAGAGCUGAACACAGCGUGGUAAAGUGGCUGUGGCUCGACUGCA,0.02
16,GGCAGAGCUCACCACAUCGUGGCUAAGUGGCUGUGGCUAGACUGCC,0.04
17,GGCAAAGCUCAACACAGCGUGGCAAAAUGGCUUUGGCUAGACUGCC,0.04
18,AGCAGCGCUGAACGCAGCGUGGCAAAGUGGCUGUGGCUAGACUGCC,0.04
19,GGCAGAGCACAACACAGCGUGGCAAAGUCUCUGUGGCUAGUCUGCC,0.04

row,Variant,self-cleavage
1,GGCAGAGCUCACCACAGGGUGGUAAAGUGGCUGUGGCUAGACUGCC,0.01
2,GGCAGAGAUCAACACAGCGUGGCAAAGUGGCUGUGGAAAUACUGCC,0.06
3,GGCAGAGCUCAACACAUCUUGGCAAAGUGGCUGUGGCUAGACGGGC,0.05
4,GGCAGAGCUUAUUACAGCGUUGCAAAGUGGCUGUGGCUAGACUGCC,0.07
5,GGCAGAGCUCAACAUAGCGUGGCAAACUGGGUGUGGCUAGACUGCC,0.06
6,GGCAGAGCUCAACACGGCGUGGCAAAGAGGCUGUGGCUUGACUGCC,0.09
7,GGCAAAGCUCAACACAGCGUGGCAAAGAGGCUGUCGCUAGACUGUC,0.01
8,GGGAGAGCUCAACACAGCUUGGCAAAGUGCCUGUGGCUAGUCUGCC,0.02
9,GACAGAGCUCGCUACAACGUGGCAAAGUGGGUGUGGCUAGACUGCC,0.04
10,GGCAGAGCUCAGCACGGCGUGGCAAAGUGGAUGUGGCUAGACUGCC,0.23
11,GGCAGAGCUCAACACAGCGUGACAAAUUGGCUGUGGCUACAUUGCC,0.17
12,GGCAGAGCACAACACACCGUGGCAAAGUGGCUGUCGCUAGACUGCC,0.08
13,GGCAGAGCUCAACACUGCGUGGCAAAGUGGUUGUGCCUAGACUGCC,0.03
14,GGCAGAGCUAAACACAGCGUGGCAAAUUGGCUGUGGCUAGACUGCU,0.04
15,GGCAGAGCGCAACACAGCGUGGCAAAGUGUUAGUGGCUAGACUGCC,0.02
16,GGCAGAGCUCAACAGAGCGUGGCAAAGUGGCUAUGGCAAGACUGCC,0.06
17,GGCAAACAUCAUCACAGCGUGGCAAAGUGGCUGUGGCUAGUCUGCC,0.18
18,GGCAGAGCUCAACACAGCGUGGCAAAGUGACUGUGACUAGACUGUC,0.15

# — the RNAGym collection of RNA variant scans (doi:10.7554/elife.90254)
